Some of the results follow. Repeats are few or missing, and single values can be far off.
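Note: cells treated in 1,536-well plates, then fixed and DAPI-stained, with nuclei counted from automated high-throughput microscope images.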

The assay has as its system WM1745. Briefly: cell count relative to DMSO control; melanoma cells; higher = more viable cells. Conditions: library dose: standard library concentration; 72 h.
Turning to `CCN(CC)CCNC(=O)c1c(C)[nH]c(/C=C2\C(=O)Nc3ccc(F)cc32)c1C` [sunitinib] + COc1cc(Nc2ncc(F)c(Nc3ccc4c(n3)NC(=O)C(C)(C)O4)n2)cc(OC)c1OC [Tamatinib] (first compound 2 µM, partner dose 2 µM), the cell count turned out to be 37%. `COc1cc([C@@H]2c3cc4c(cc3[C@@H](O[C@@H]3O[C@@H]5CO[C@@H](C)O[C@H]5[C@H](O)[C@H]3O)[C@H]3COC(=O)[C@H]23)OCO4)cc(OC)c1O` [etoposide] + OCCn1cc(-c2cnc3nnn(Cc4ccc5ncccc5c4)c3n2)cn1 [PF04217903] (first compound 0.1 µM, partner dose 5 µM) gave a cell count of 87%. `C[C@]1(O)C[C@@H](c2nc(-c3ccc4ccc(-c5ccccc5)nc4c3)c3c(N)nccn32)C1` + CN(C)S(=O)(=O)c1ccc2c(c1)/C(=C/c1cc3c([nH]1)CCCC3)C(=O)N2 [SU6656] (first compound 2 µM, partner dose 2 µM) displayed a cell count of 35%. Compound `C[C@]1(O)C[C@@H](c2nc(-c3ccc4ccc(-c5ccccc5)nc4c3)c3c(N)nccn32)C1` + COc1cc2c(Oc3ccc4[nH]c(C)cc4c3F)ncnc2cc1OCCCN1CCCC1 [cediranib] (first compound 2 µM, partner dose 2 µM) came in with a cell count of 62.5%.

Compound `CCN(CC)CCNC(=O)c1c(C)[nH]c(/C=C2\C(=O)Nc3ccc(F)cc32)c1C` [sunitinib] + CO[C@@H]1[C@H](N(C)C(=O)c2ccccc2)C[C@H]2O[C@]1(C)n1c3ccccc3c3c4c(c5c6ccccc6n2c5c31)C(=O)NC4 [Midostaurin] (first compound 2 µM, partner dose 0.4 µM) came in with a cell count of 23.6%. On to `COc1cc([C@@H]2c3cc4c(cc3[C@@H](O[C@@H]3O[C@@H]5CO[C@@H](C)O[C@H]5[C@H](O)[C@H]3O)[C@H]3COC(=O)[C@H]23)OCO4)cc(OC)c1O` [etoposide] + CC(C)(C)c1cnc(CSc2cnc(NC(=O)C3CCNCC3)s2)o1 [SNS-032] (first compound 0.1 µM, partner dose 0.05 µM), for which the cell count came to 66.3%.

Compound `C[C@]1(O)C[C@@H](c2nc(-c3ccc4ccc(-c5ccccc5)nc4c3)c3c(N)nccn32)C1` + C=CCn1c(=O)c2cnc(Nc3ccc(N4CCN(C)CC4)cc3)nc2n1-c1cccc(C(C)(C)O)n1 [MK1775] (first compound 2 µM, partner dose 0.1 µM) showed a cell count of 31.2%. With `COc1cc([C@@H]2c3cc4c(cc3[C@@H](O[C@@H]3O[C@@H]5CO[C@@H](C)O[C@H]5[C@H](O)[C@H]3O)[C@H]3COC(=O)[C@H]23)OCO4)cc(OC)c1O` [etoposide] + O=C(CCCCCCC(=O)Nc1ccccc1)NO [vorinostat] (first compound 0.1 µM, partner dose 0.4 µM), the cell count came to 67%. Regarding `COc1cc([C@@H]2c3cc4c(cc3[C@@H](O[C@@H]3O[C@@H]5CO[C@@H](C)O[C@H]5[C@H](O)[C@H]3O)[C@H]3COC(=O)[C@H]23)OCO4)cc(OC)c1O` [etoposide] + O=C(O)c1ccc(-c2c[nH]c3ncc(-c4ccccc4)cc23)cc1C1CCCC1 [GSK650394] (first compound 0.1 µM, partner dose 0.8 µM), the cell count turned out to be 92.8%. `Cn1cnc2c(F)c(Nc3ccc(Br)cc3Cl)c(C(=O)NOCCO)cc21` [selumetinib] + Cc1ccc(NC(=O)c2cccc(N(C)C)c2)cc1NC(=O)c1ccc(O)cc1 [ZM336372] (first compound 0.075 µM, partner dose 10 µM): the cell count stood at 95.6%. Turning to `C[C@]1(O)C[C@@H](c2nc(-c3ccc4ccc(-c5ccccc5)nc4c3)c3c(N)nccn32)C1` + OCCn1cc(-c2cnc3nnn(Cc4ccc5ncccc5c4)c3n2)cn1 [PF04217903] (first compound 2 µM, partner dose 5 µM), the cell count was 56.7%. `CCN(CC)CCNC(=O)c1c(C)[nH]c(/C=C2\C(=O)Nc3ccc(F)cc32)c1C` [sunitinib] + CN(C)S(=O)(=O)c1ccc2c(c1)/C(=C/c1cc3c([nH]1)CCCC3)C(=O)N2 [SU6656] (first compound 2 µM, partner dose 2 µM): the cell count came to 46.7%. As for `CCN(CC)CCNC(=O)c1c(C)[nH]c(/C=C2\C(=O)Nc3ccc(F)cc32)c1C` [sunitinib] + CC(C)(C)c1cnc(CSc2cnc(NC(=O)C3CCNCC3)s2)o1 [SNS-032] (first compound 2 µM, partner dose 0.05 µM), the figure is 31.6%; as for `Cn1cnc2c(F)c(Nc3ccc(Br)cc3Cl)c(C(=O)NOCCO)cc21` [selumetinib] + O=C(Nc1cccc(Cl)c1)Nc1ncc(CCNc2ncnc3ccsc23)s1 [SNS314] (first compound 0.075 µM, partner dose 0.004 µM), 70.2%; as for `COc1cc([C@@H]2c3cc4c(cc3[C@@H](O[C@@H]3O[C@@H]5CO[C@@H](C)O[C@H]5[C@H](O)[C@H]3O)[C@H]3COC(=O)[C@H]23)OCO4)cc(OC)c1O` [etoposide] + CC1(C)NC(=O)N(c2ccc([N+](=O)[O-])c(C(F)(F)F)c2)C1=O [nilutamide] (first compound 0.1 µM, partner dose 5 µM), 84%.

Values taken from the supplement of paper PMC4604168 (melanoma cell lines).
